# Like-named read-outs stand apart in the source and are kept apart here. The list shows a part of the results.
# System: T1, C. trachomatis L2/434/Bu expressing GFP (CTL2-GFP)
# T1 construct: L2/434/Bu GFP intracellular growth in HeLa cells
# Set-up: species or system HeLa; C. trachomatis total inclusion area by high-content imaging, normalised to DMSO
# How it was run: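 Host cell viability was gauged from Hoechst-stained nuclei counts, while chlamydial growth was taken from total inclusion area and inclusion number per well. Cells were fixed and imaged by high-content microscopy once bulk GFP and resorufin fluorescence had been measured.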
# [1] = total inclusion area; 28.5 h, 10 µM; inhibitor
Structure (SMILES),% of control remaining [1],"% of control remaining (total inclusion area, 28.5 h, 10 µM, inhibitor)"
NNC(=O)CSc1nnc(-c2ccc(Cl)cc2)n1-c1ccccc1 [CBK263010],114.291,
Cc1ccc2c(CC(=O)NCCn3cncn3)coc2c1 [CBK283240],88.9376,
O=C(CCS(=O)(=O)c1ccccc1)Nc1cccnc1N1CCNCC1 [CBK028262T],85.6548,
CCOC(=O)C1CCN(S(=O)(=O)c2cccc3cccnc23)CC1 [CBK051242],92.4422,
CC(=O)N1C[C@H]2CCCN(S(=O)(=O)c3ccc4c(c3)CCC4)[C@H]2C1 [CBK282254],122.054,
COc1ccc(C(=O)N2CCN(c3cnn(C)c(=O)c3Cl)CC2)cc1 [CBK305720],106.587,
COc1cc(OC)cc(C(=O)N2CCC3(CC2)NC(=O)c2ccc(OC)cc2O3)c1 [CBK166328],79.6367,
Cc1nc(C(F)(F)F)ccc1C(=O)N1CCCC1c1ccc[nH]1 (stereo not drawn) [CBK306328],53.2541,
O=C(O)c1cc(NC(=O)c2ccc(NC(=O)c3ccco3)cc2)cc(C(=O)O)c1 [CBK265149],68.9237,
COc1cc(-c2nc3ncccc3cc2NS(C)(=O)=O)cc(OC)c1OC [CBK085697],90.2403,
CC(C)Nc1nc2ccccc2nc1OCc1ccc(C2CC2C(=O)N(C)C)cc1 (stereo not drawn) [CBK166091],91.7891,
CN1CCC(N2CCN(C(=O)c3ccccc3Nc3cccc(C(F)(F)F)c3)CC2)CC1 [CBK149097],105.98,
CC(NCC(O)COCc1ccc(Cl)cc1)c1ccccc1 (stereo not drawn) [CBK027972C],98.6361,
CCC(=O)Oc1ccc(C(=O)N2CCN(c3ccccc3F)CC2)cc1 [CBK307538],67.3276,
CN(C)CCNC(=O)NC(c1ccccc1)c1ccccc1 [CBK263505C],99.5471,
COCOc1ccc(-c2ncc(OCc3ccc4c(c3)OCO4)nc2N)cc1 [CBK145101],89.9792,
N#CCCCN1CCC(Oc2cncc(OCc3cccnc3)n2)C1 (stereo not drawn) [CBK084466],94.9877,
Nc1cc(S(=O)(=O)Nc2ccc(C(F)(F)F)cc2)ccc1N1CCCNCC1 [CBK001518C],79.3373,
CCN(Cc1ccccc1)c1ccc(C2NC(=O)NC(O)(C(F)(F)F)C2C(=O)c2cccnc2)cc1 (stereo not drawn) [CBK264999],111.897,
Cc1nn(CC(=O)N2C(C)CCCC2C)c(=O)c2cc3occc3n12 (stereo not drawn) [CBK283555],97.8138,
CCCc1nnc(C(=O)NC(=O)NCCCN(C)C)s1 [CBK018853],5.4365,
COc1cccc(NC(=O)c2ccncc2Cl)c1 [CBK174695],63.6094,
O=C(NC1CCCCC1)O[C@@H]1CO[C@H]2[C@@H]1OC[C@@H]2NS(=O)(=O)Cc1ccccc1 [CBK289467],91.3987,
O=C1CC[C@@H](NCc2ccccn2)[C@H](c2cc(F)cc(F)c2)N1 [CBK282911],80.2044,
Cc1cc(/C=C(/C#N)c2cccc(F)c2)c(C)n1-c1ccc(S(N)(=O)=O)cc1 [CBK268268],90.4608,
COc1ccc2nc(-n3nc(C(=O)NCc4ccncc4)c4ccccc43)sc2c1 [CBK048521],101.772,

Structure (SMILES),% of control remaining [1],"% of control remaining (total inclusion area, 28.5 h, 10 µM, inhibitor)"
O=C(Nc1nnc(C2=COCCO2)o1)c1ccco1 [CBK287412],99.9074,
O=C(O)c1cccc(NC(=O)c2ccc(COc3ccc(-c4ccccc4)cc3)o2)c1 [CBK299778],102.618,
CCOC(=O)COc1c(Cl)cc(/C=C/c2[nH]c(=O)[nH]c(=O)c2[N+](=O)[O-])cc1Cl [CBK267003],100.974,
COc1ccc(C(C)C)cc1-c1cn2ccnc2c(NC2CCOCC2)n1 [CBK066320],95.328,
CC(=O)N[C@H]1CO[C@H]2[C@@H]1OC[C@@H]2Nc1nccc(-c2cccc(F)c2)n1 [CBK289534],107.851,
O=C(c1ccoc1)N1CCC2(CCCN(Cc3ccc4ccccc4c3)C2)C1 (stereo not drawn) [CBK132811],61.4235,
CC1(OCCCN2CCCCC2)SC(NC2CC3CCC2C3)=NC1=O (stereo not drawn) [CBK115611],104.447,
COc1cccc(Cc2c(C)nc3c(C(=O)NCC4COc5ccccc5O4)cnn3c2C)c1 (stereo not drawn) [CBK162064],107.523,
CC1=NN(c2ccc(S(N)(=O)=O)cc2)C(=O)/C1=C\c1ccc(-c2cccc(C(=O)O)c2)o1 [CBK263483],99.6898,
O=C(O)C(CCCCN1C(=O)c2ccccc2C1=O)N1C(=O)c2ccccc2C1=O (stereo not drawn) [CBK265250],112.219,
O=C(c1ccccc1C(F)(F)F)N1CCC(n2c(=O)[nH]c3ccccc32)CC1 [CBK149706],69.0737,
CC(=O)Nc1ccc(CNc2ccc(C#N)cn2)cc1 [CBK297790],106.071,
CC(C)C(=O)Nc1ccc2c(-c3ccc4c(c3)OCCCO4)ccnc2n1 [CBK073675],102.033,
COc1ccc(S(=O)(=O)N(c2ccccc2)C2CCNCC2)cc1OC [CBK165076T],92.541,
OC(Cn1ccnc1)C1CCCCC1 (stereo not drawn) [CBK010092],72.5085,
Cc1c(Cl)ccc2c(C(=O)Nc3ccc(S(=O)(=O)N4CCOCC4)cc3)cc(-c3cccnc3)nc12 [CBK267718],104.373,
O=C1NCCCCC1N1CCS(=O)(=O)CC1 (stereo not drawn) [CBK017083],61.306,
COc1ncc(C(=O)NCc2cccnc2N(C)C2CCCCC2)cn1 [CBK306870],53.4908,
CN(C)S(=O)(=O)Nc1cccc2cc[nH]c12 [CBK159505],86.329,
COC(=O)C1=C(Cn2ccc(C(F)(F)F)n2)NC(=O)NC1c1cc(C)ccc1C (stereo not drawn) [CBK268792],60.9605,
O=C(Nc1ccccc1)c1ccc(N2CCN(c3ccccn3)CC2)c(S(=O)(=O)N2CCOCC2)c1 [CBK266810],92.0894,
O=C(NCc1ccccn1)c1cc(-c2ccc(Cl)cc2)on1 [CBK116558],119.175,
c1cnc2cc(Oc3ccc4nccnc4c3)ccc2n1 [CBK267266],108.105,
COc1ccc(CNC(=O)N2CCN(c3cc(C(F)(F)F)ccn3)CC2)cc1OC [CBK162344],84.013,
CC1CCc2n[nH]c(C(=O)N3CCC(O)C(C)C3)c2C1 (stereo not drawn) [CBK283207],99.4975,
Fc1cc2c3c(c1)c1c(n3CCO2)CCNCC1 [CBK018018C],82.5157,

Structure (SMILES),% of control remaining [1],"% of control remaining (total inclusion area, 28.5 h, 10 µM, inhibitor)"
CC1(C)C2C(=O)C(c3ccccn3)=C(N)N2C(C)(C)C1(C)C (stereo not drawn) [CBK022153],63.464,
CCC(C)NCc1cccc(Oc2ncccn2)c1 (stereo not drawn) [CBK288090],81.7475,
Cc1cc(C)nc(Nc2ccc(C3CCCN(C(=O)c4c(C)oc5c4CCCC5)C3)nc2)n1 (stereo not drawn) [CBK285988],130.702,
O=c1[nH]c2ncc(-c3cccnc3)nc2n1Cc1ccc(Cl)cc1 [CBK064561],100.847,
CC(=O)Nc1nnc(SCC(=O)N2CCN(c3ccc(Cl)cc3)CC2)s1 [CBK307384],43.4796,
CCN1CCCN(c2cc(OCc3ccc(Cl)c(Cl)c3)ncn2)CC1 [CBK083786],86.8476,
Cn1c(N2CCCC(C(=O)NCC3CC3)C2)nc2ccccc21 (stereo not drawn) [CBK283987],96.0278,
CCN(CC)C(=O)CN1C(=O)N2CCCN=C2c2ccc(Cl)cc21 [CBK284386],85.4411,
Cc1nnc(SCC(=O)Nc2nsc(-c3ccc(Cl)cc3)n2)s1 [CBK266525],94.0925,
COc1cccc(OC)c1-c1cn2ccnc2c(N(C)CCN(C)C)n1 [CBK066398],133.803,
COc1ccc([C@@]23CC[C@@H](NC(=O)Cc4ccc(Cl)cc4)CC2N(C)CC3)cc1OC (stereo partly drawn) [CBK074971T],104.383,
Cc1c(C(=O)O)sc2nc(SCC(=O)NCc3ccccc3)[nH]c(=O)c12 [CBK287609],,80.406
CCNC(=S)N1CCN(CCNC=C2C(=O)CC(c3ccco3)CC2=O)CC1 (stereo not drawn) [CBK264742],108.989,
COc1ccc(OC)c(-n2cnc3c2NC(=O)CC3c2ccccc2Cl)c1 (stereo not drawn) [CBK287983],113.764,
CC(C)NC(=O)c1cc(C2CCN(C(=O)CCOc3ccccc3F)C2)nc2ccccc12 (stereo not drawn) [CBK285917],96.5472,
CC(O)c1cc2c(cc1NC(=O)c1cnn3c1NC(c1ccco1)CC3C(F)(F)F)OCO2 (stereo not drawn) [CBK268850],111.665,
CN1C(=O)c2ccccc2C(=O)[C@@]2(C)CN(C(=O)c3ccccc3)C[C@@H]12 [CBK281685],106.605,
CN1CCN(C)C(COc2cc(C(F)(F)F)ccn2)C1 (stereo not drawn) [CBK113460],94.36,
O=C(COc1ccccc1)Nc1ccc(N2CCOCC2)c2nonc12 [CBK268149],82.9008,
C=CCn1c(CCCNC=O)nc2ccccc21 [CBK269375],94.4036,
O=C(O)C(Cc1ccccc1)Nc1ncnc2c1oc1ccccc12 (stereo not drawn) [CBK266719],81.6101,
CC(SCc1ccccc1)C(=O)NCC1CCN(c2ccccc2)C1 (stereo not drawn) [CBK298329],99.6056,
O=C(c1cc(S(=O)(=O)NCc2ccco2)c(Cl)cc1Cl)N1CCC1 [CBK305004],88.0085,
COC(=O)c1c(NC(=S)NCc2ccccn2)sc2c1CCC2 [CBK267090],100.325,
CCn1cc(C(=O)N2CCN(Cc3ccco3)C[C@@H]2C(C)C)cn1 [CBK284307],59.3155,
Cc1ccc2[nH]c(=O)c(CNc3ccc(-c4nc5cc(C)ccc5[nH]4)cc3)cc2c1 [CBK286161],70.6432,

# — article PMC12040169 (PLOS Biology, 2025)
